# Hit rate of the full screen: of about 150,000 compounds, about 540 (0.36%) showed an effect of 50% or more. This is one part of the list.
# System: Plasmodium falciparum
# Assay: Primary screen in NF54 nanoGlo assay, in single point, at 2uM, 72h; a lower Z score goes with more inhibition
# Format: functional, Erythrocyte
# Conditions: timepoint 72 hour
Compound,% Inhibition,Z score
Cc1cc(C(=O)NCCc2ccccn2)cc(NCC(F)(F)F)n1,-5%,0.68
CCC(CC)C(=O)Nc1ccc(Cl)c(Cl)c1,3%,-0.54
Cc1ncc2ccc(C(=O)N[C@@H](CO)c3ccc(Cl)cc3C(F)(F)F)cn12,-17%,2.22
CC(C)c1nc(N2CCCC2=O)sc1C(=O)NC1CCCCCC1,-2%,0.18
COc1cncc(O[C@H]2CCCN(S(=O)(=O)C(C)C)C2)n1,-15%,2.49
Cc1nc(O)c2c(n1)CN(Cc1cc(Cl)c3c(c1)OCCO3)C2,-18%,1.78
CCn1cc(N[C@@H](C)C(=O)NCc2cccs2)cn1,-6%,0.9
Cc1ccc(C(=O)Nc2nc3n(n2)[C@H](c2ccc(Cl)cc2)CC(=O)N3)cc1,-12%,1.24
CN1CCN(Cc2cnn(-c3cccc(F)c3)c2)C[C@]12CCNC(=O)CC2,-2%,0.29
Cc1ccc(F)cc1NC(=O)N1CC[C@@H](CO)[C@@H](O)C1,-3%,0.58
CCc1nc2cc(N3C(=O)[C@H]4CCCN4C3=O)ccc2o1,5%,-1.03
CC(C)=CCO[C@H]1COCC[C@@H]1NC(=O)c1cccn1C,20%,-2.57
CC1(C)CCc2sc(NC(=O)N[C@@H]3CCCC[C@H]3S(C)(=O)=O)nc21,4%,-0.62
Cc1nc(Cn2cncc(-c3ccccc3)c2=O)oc1C,-3%,0.33
CCNC(=O)NC1CN(c2cccc(F)c2C#N)C[C@@H]1OC (stereo not given in full),2%,-0.2
CN(Cc1cccs1)C(=O)CC[C@H](N)c1ccccc1,-4%,0.76
NC(=O)C1CCC(C(=O)N2CCC3(CCCCC3)C2)CC1 (stereo not given),-10%,1.24
Cc1nc(-c2cscc2C)cc(C(C)C)n1,-19%,1.74
O=C1C[C@H](N2CCN(/C=C/c3ccccc3)CC2)C(=O)N1c1ccccc1,-19%,2.07
CCc1nc(NCc2ccc(F)cc2)c2onc(-c3ccc(C)cc3)c2n1,-5%,0.64
CCn1nnnc1-c1cccc(NC(=O)NCc2nc(C)cs2)c1,-15%,2.03
CCN1CCN(CCC(=O)NC2CC(C)(OC)C2(C)C)CC1 (stereo not given),0%,-0.05

Compound,% Inhibition,Z score
Cc1nn(C)c(C)c1C(=O)N(C)Cc1nc(C(F)(F)F)cs1,-10%,1.73
CC[C@@H](Cn1nnc2ccccc2c1=O)NC(=O)Nc1cc(OC)cc(OC)c1,0%,-0.04
CCN(CC)C(=O)CN(C)[C@@H](C)c1ccncn1,-2%,0.28
O=C(Nc1ccccc1N1CCCC1=O)c1ccc2[nH]c3c(c2c1)CCCC3,-1%,0.19
CC(C)Oc1cccc(C(=O)N2CC[C@@](C(=O)O)(C(F)(F)F)C2)n1,-6%,0.71
Cc1nccn1CC(=O)Nc1cnn(CC(C)C)c1C(C)C,-7%,0.88
CNS(=O)(=O)c1ccc(N(C)C[C@H](C)c2nccs2)cc1,-10%,1.43
O=C(Nc1ccc(N2CCOCC2)nc1)Nc1ccccc1F,-8%,1.15
c1nc2cc(-c3noc(CCCN4CCCCC4)n3)ccc2[nH]1,-1%,0.19
CC(C)(C)CCC1(O)CC(C(=O)NC2CCOC3(CCOC3)C2)C1 (stereo not given),-11%,1.33
COC(=O)Cc1ccccc1C(=O)N1CC2C(C1)C2(C)C (stereo not given),-4%,0.6
O=C1CCCN1c1ccc(NCc2cccc(F)c2O)nc1,0%,0.05
O=C1NCCC[C@H]1c1nc(-c2ccsc2)no1,-2%,0.36
COc1ccc(OCC(=O)Nc2nc(-c3cccs3)ns2)cc1,-16%,1.39
Cc1noc([C@@H]2CC3(CCN(C(=O)CCc4nc5ccccc5s4)CC3)CN2C)n1,-11%,1.37
COCC(=O)N[C@@H]1CN(C(=O)Nc2ccccc2)CC[C@@H]1c1nc(C)no1,-7%,0.86
Cc1nccc(C(=O)Nc2ccc(CCN3CCC(O)CC3)cc2)n1,-4%,0.53
Fc1ccc(-c2nc(COc3ccc(Oc4ccncc4)cc3)co2)cc1,-1%,0.09
C[C@H](Nc1ccc(C(F)(F)F)cn1)C1CCOCC1,-2%,0.18
Cc1ccsc1-c1cccc(NC(=O)[C@@H]2CCCN2C(N)=O)c1,-6%,0.88
CC[C@H](NC(=O)Cc1csc(C)n1)c1cn2cccnc2n1,-3%,0.63
Cc1nc(C)c(CNc2ncccc2F)s1,-7%,1.08

Compound,% Inhibition,Z score
Cn1cc(Cl)c(C(=O)Nc2cccc(S(=O)(=O)N3CCOCC3)c2)n1,38%,-5.55
Cc1cccc(OCCN2C(=O)NC3(CCCC3)C2=O)c1,-4%,0.68
Cc1cc(C)nc(N2CCN(C(=O)C[C@H]3C(=O)N(C)C(=O)N3C)CC2)n1,-5%,0.87
CC[C@](C)(C#N)C(=O)NCC1CCCCCC1,-16%,1.74
O=C(NCCc1cccc(O)c1)c1cccc(NS(=O)(=O)c2ccc3c(c2)OCCCO3)c1,-17%,2.64
CN1CCO[C@@H](CNCc2cc(-c3cccs3)on2)C1,1%,-0.11
CC(NCCN(C)C(=O)OC(C)(C)C)[C@H]1COC(C)(C)O1 (stereo not given in full),-2%,0.39
Cc1cccc(NCCN2CCN(C(=O)C3CCCC3)CC2)n1,-4%,0.6
O=C(NCc1ncc[nH]1)[C@H]1CCCN(C2CCN(c3nc4ccccc4o3)CC2)C1,0%,-0.02
CN(CCCN1CCCC1)CC(=O)NCC1CCCCC1,-6%,1.1
CCN(CC)c1ccc(CNC(=O)c2c[nH]nn2)cc1F,-4%,0.59
COc1ccc(-c2cc(C(=O)NC[C@@H]3CCCN4CCCC[C@H]34)n[nH]2)cc1OC,-1%,0.15
CN(CCc1ccc2c(c1)CCO2)c1ccn(C)n1,26%,-3.33
CCCn1cc(NC(=O)c2cc(Br)cn2C)cn1,1%,-0.15
CNC(=O)C[C@H]1CCN(c2nnc(C(C)C)s2)C1,-16%,2.33
CC(NC(=O)NCc1ccco1)C1CCCN(C2CCC2)C1 (stereo not given),2%,-0.14
CC1CCCC(OCc2nnc(-c3cnccn3)o2)C1 (stereo not given),7%,-1.1
CC(C)(C)OC(=O)Nc1cnn2c1N(C(=O)[C@H]1CC13CC3)CCC2,-12%,2.32
C[C@@H](CNS(=O)(=O)c1cc(-c2nnc(C(=O)N3CCCC3)o2)cs1)c1ccccc1,-7%,0.99
Cc1cc(-c2cc(C(=O)Nc3ccncc3)no2)ccc1F,-14%,2.57
CN(C)c1ccc(C(=O)Nc2ccc3[nH]c(=O)[nH]c3c2)cc1,-5%,0.65
CC(C)CCN1C(=O)CC[C@@H]2CN(C3CC=CC3)CC[C@@H]21,-16%,1.93

Compound,% Inhibition,Z score
CCN(CC)c1onc(-c2ccccc2)c1CN(C(=O)c1ccc(C)cc1)C1CC1,-4%,0.45
CCOc1ccccc1CN(CCc1ccc2c(c1)OCO2)Cc1ccc(OC)c(OC)c1,-1%,0.11
CC(Oc1cccc(CO)c1)C(=O)N1CCCC1c1cccc(F)c1 (stereo not given),4%,-0.6
O=C(NCCN1CCc2[nH]nc(-c3ccc(F)c(F)c3)c2C1)c1ccccc1,-7%,1.3
Cc1cc(=O)cc(O)n1Cc1nc2ccccc2[nH]1,-12%,1.59
COc1ccc(OC)c2sc(N(Cc3cccnc3)C(C)=O)nc12,-15%,2.89
C[C@](O)(CNC(=O)Nc1cccc(OC(F)F)c1)c1ccsc1,-6%,0.84
Cc1cc(=O)[nH]c2[nH]n(-c3ccccc3)c(=O)c12,6%,-0.76
CC[C@H](C)N(Cc1cc(NC(=O)NC(C)(C)C)ccc1N(C)C)C(=O)C(C)C,0%,-0.01
NC(=O)[C@@H]1CCCN1C(=O)c1cn(C2CCCCCC2)nn1,-5%,0.63
CC(C)c1ncc(NC(=O)Cc2ccc(C(=O)O)cc2)cn1,14%,-1.82
O=C(NC[C@@H](c1ccco1)n1cccn1)c1cccc(Cl)c1,2%,-0.29
COc1ccc(C(=O)NC[C@@]2(COc3ccccc3)C[C@@H](O)[C@@H](O)C2)cc1,-11%,1.37
COc1cccc(-c2nc3ccccc3c(=O)[nH]2)c1OCc1ccc(Cl)cc1Cl,-49%,5.76
CC(OC(=O)C(C)Oc1ccc(Cl)cc1Cl)C(=O)NC(=O)NC1CCCC1 (stereo not given),-1%,0.08
Cc1nc(C(=O)N2CCN(c3ccc(F)cc3)CC2)co1,-6%,0.84
Cc1cc(C)c(C#N)c(N2CCC3(CCC(=O)N(CCc4ccccn4)C3)CC2)n1,-8%,1.26
CC(C)CC(=O)N(CC(=O)Nc1nc(-c2ccccc2)cn1-c1ccc(F)cc1)Cc1ccccc1,-4%,0.47
COCc1ncc(CN(C)Cc2cc(C3CC3)[nH]n2)cn1,-20%,2.15
